The list shows a part of the results. The list includes weakly bound sequences.

The assay has as its target T1, MBP-FoxP3dN (UniProt Q99JB6).
T1 sequence: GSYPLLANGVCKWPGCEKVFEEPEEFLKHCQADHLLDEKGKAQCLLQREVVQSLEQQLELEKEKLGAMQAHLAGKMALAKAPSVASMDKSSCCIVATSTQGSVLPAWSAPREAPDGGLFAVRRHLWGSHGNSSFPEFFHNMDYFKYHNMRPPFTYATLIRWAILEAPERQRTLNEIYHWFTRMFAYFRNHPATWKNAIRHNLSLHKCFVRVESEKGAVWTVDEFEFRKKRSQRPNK
Nature of the assay: PD-seq (MBP pull-down with sequencing). The conditions noted are these: 20 mM Tris-HCl pH 7.5, 100 mM NaCl, 1.5 mM MgCl2, 0.4 uM protein, 0.1 uM dsDNA library, 30 min, room temperature, amylose pull-down; high values mean tight binding; double strand, one strand shown.
For “GATGATTGTTCTCCCAGCTGATGAATTACCAACATCGAGTAAACAAATTTTCCTAATCTTTCTGTTCAAGCGCCATCTAC”, the binding signal (RPM ratio (pull-down/input)) was 2.19.
For the sequence “GATGATTGTTCTCCCAGCTGATGAATTTAGCTACTCGAGTAAACAAATTTTCCTAATCTTTCTGTTCAAGCGCCATCTAC”, the binding signal (RPM ratio (pull-down/input)) was 1.83.
For “GATGATTGTTCTCCCAGCTGATGAATTCTTCGTGTCGAGTAAACAAATTTTCCTAATCTTTCTGTTCAAGCGCCATCTAC”, the binding signal (RPM ratio (pull-down/input)) was 0.326.
For “GATGATTGTTCTCCCAGCTGATGAATTCAGGATCTCGAGTAAACAAATTTTCCTAATCTTTCTGTTCAAGCGCCATCTAC”, the binding signal (RPM ratio (pull-down/input)) was determined as 0.286.
Under “GATGATTGTTCTCCCAGCTGATGAATTGCGTGATTCGAGTAAACAAATTTTCCTAATCTTTCTGTTCAAGCGCCATCTAC” stands 1.86; under “GATGATTGTTCTCCCAGCTGATGAATTCGACCAGTCGAGTAAACAAATTTTCCTAATCTTTCTGTTCAAGCGCCATCTAC”, 0.241; under “GATGATTGTTCTCCCAGCTGATGAATTCTAACGATCGAGTAAACAAATTTTCCTAATCTTTCTGTTCAAGCGCCATCTAC”, 0.317.
Under “GATGATTGTTCTCCCAGCTGATGAATTAGGTCAATCGAGTAAACAAATTTTCCTAATCTTTCTGTTCAAGCGCCATCTAC” stands 0.289; under “GATGATTGTTCTCCCAGCTGATGAATTACAGCGATCGAGTAAACAAATTTTCCTAATCTTTCTGTTCAAGCGCCATCTAC”, 0.555; under “GATGATTGTTCTCCCAGCTGATGAATTAAAAAAGTCGAGTAAACAAATTTTCCTAATCTTTCTGTTCAAGCGCCATCTAC”, 0.175.
Under “GATGATTGTTCTCCCAGCTGATGAATTATGGCAGTCGAGTAAACAAATTTTCCTAATCTTTCTGTTCAAGCGCCATCTAC” stands 0.623.
For the sequence “GATGATTGTTCTCCCAGCTGATGAATTATAAAGTTCGAGTAAACAAATTTTCCTAATCTTTCTGTTCAAGCGCCATCTAC”, the binding signal (RPM ratio (pull-down/input)) is 0.282.
Consider “GATGATTGTTCTCCCAGCTGATGAATTAAGATAGTCGAGTAAACAAATTTTCCTAATCTTTCTGTTCAAGCGCCATCTAC”, for which the binding signal (RPM ratio (pull-down/input)) was 0.401.
With “GATGATTGTTCTCCCAGCTGATGAATTTACAGAATCGAGTAAACAAATTTTCCTAATCTTTCTGTTCAAGCGCCATCTAC”, the binding signal (RPM ratio (pull-down/input)) came out at 0.328.
Take “GATGATTGTTCTCCCAGCTGATGAATTGACCACATCGAGTAAACAAATTTTCCTAATCTTTCTGTTCAAGCGCCATCTAC”: the binding signal (RPM ratio (pull-down/input)) came out at 0.526.
Regarding “GATGATTGTTCTCCCAGCTGATGAATTATGTGCTTCGAGTAAACAAATTTTCCTAATCTTTCTGTTCAAGCGCCATCTAC”, the binding signal (RPM ratio (pull-down/input)) is 1.37.
Consider “GATGATTGTTCTCCCAGCTGATGAATTATGACGCTCGAGTAAACAAATTTTCCTAATCTTTCTGTTCAAGCGCCATCTAC”, for which the binding signal (RPM ratio (pull-down/input)) turned out to be 0.68.
Consider “GATGATTGTTCTCCCAGCTGATGAATTCACATCGTCGAGTAAACAAATTTTCCTAATCTTTCTGTTCAAGCGCCATCTAC”, for which the binding signal (RPM ratio (pull-down/input)) was 0.606.
On to “GATGATTGTTCTCCCAGCTGATGAATTCCGCGTTTCGAGTAAACAAATTTTCCTAATCTTTCTGTTCAAGCGCCATCTAC”, for which the binding signal (RPM ratio (pull-down/input)) was found to be 3.73.
As to “GATGATTGTTCTCCCAGCTGATGAATTATTCTCCTCGAGTAAACAAATTTTCCTAATCTTTCTGTTCAAGCGCCATCTAC”, the binding signal (RPM ratio (pull-down/input)) worked out at 0.308.
“GATGATTGTTCTCCCAGCTGATGAATTTACCAACTCGAGTAAACAAATTTTCCTAATCTTTCTGTTCAAGCGCCATCTAC”: the binding signal (RPM ratio (pull-down/input)) was found to be 0.591.
Next, “GATGATTGTTCTCCCAGCTGATGAATTCCGGAACTCGAGTAAACAAATTTTCCTAATCTTTCTGTTCAAGCGCCATCTAC”: 0.206.
As for “GATGATTGTTCTCCCAGCTGATGAATTTAAGGGGTCGAGTAAACAAATTTTCCTAATCTTTCTGTTCAAGCGCCATCTAC”, the binding signal (RPM ratio (pull-down/input)) came out at 0.356.
With “GATGATTGTTCTCCCAGCTGATGAATTTTCCGGGTCGAGTAAACAAATTTTCCTAATCTTTCTGTTCAAGCGCCATCTAC”, the binding signal (RPM ratio (pull-down/input)) is 0.139.
Consider “GATGATTGTTCTCCCAGCTGATGAATTAGACGTATCGAGTAAACAAATTTTCCTAATCTTTCTGTTCAAGCGCCATCTAC”, for which the binding signal (RPM ratio (pull-down/input)) was 0.655.
With “GATGATTGTTCTCCCAGCTGATGAATTTGGCTAGTCGAGTAAACAAATTTTCCTAATCTTTCTGTTCAAGCGCCATCTAC”, the binding signal (RPM ratio (pull-down/input)) was found to be 1.03.
For the sequence “GATGATTGTTCTCCCAGCTGATGAATTAGAAACCTCGAGTAAACAAATTTTCCTAATCTTTCTGTTCAAGCGCCATCTAC”, the binding signal (RPM ratio (pull-down/input)) came out at 0.26.
Under “GATGATTGTTCTCCCAGCTGATGAATTCAGAACGTCGAGTAAACAAATTTTCCTAATCTTTCTGTTCAAGCGCCATCTAC” stands 0.243; under “GATGATTGTTCTCCCAGCTGATGAATTATTACACTCGAGTAAACAAATTTTCCTAATCTTTCTGTTCAAGCGCCATCTAC”, 0.537; under “GATGATTGTTCTCCCAGCTGATGAATTGACCGACTCGAGTAAACAAATTTTCCTAATCTTTCTGTTCAAGCGCCATCTAC”, 0.245.
Regarding “GATGATTGTTCTCCCAGCTGATGAATTCGATGACTCGAGTAAACAAATTTTCCTAATCTTTCTGTTCAAGCGCCATCTAC”, the binding signal (RPM ratio (pull-down/input)) came to 1.45.

Source of the values: PMC12820563.
